Source: the supplement of paper PMC11417369
Some of the results follow.

Tested on: PfAP2-HC AP2 domain (GST-tagged)
Test: gcPBM binding intensity (ln(normalized median fluorescence intensity)); higher = stronger DNA binding
Outline: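 Probes on an Agilent 4 × 180k array were primer-extended, double-stranded and 36 bp long, taken from intergenic genomic regions, with negative controls added. GST-tagged P. falciparum DNA-binding domains from E. coli, about 25 μg on average, were applied to the array for 1 h in 1× PBS containing 1% milk, 0.2 mg/ml BSA, 0.5% salmon testes DNA and 0.03% Triton X-100. Binding intensity, obtained after Alexa488 anti-GST antibody detection and a 488 nm scan, is the highest Masliner-normalised natural-log median intensity across replicate spots of either probe orientation.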

Row | Sequence | gcPBM binding intensity (ln)
1 | ATCATTTATTTTTTAAAAGTATATATATATATATAT [CACACA_negctrl_site220] | 9.59
2 | TTAATAAAAATATATCCACACACATATATATATATG [CACACA_site8091] | 9.98
3 | TTTTTTTTTTTTTAAATAATCATACATGTGAAATTG [GTGCAC_negctrl_site328] | 9.23
4 | ACATATTATAACATATGTACATATATATATATATAA [XGTACX_site5567] | 9.69
5 | AAATATAAGTTTTATTGTACATTATATAGCATATTT [XGTACX_site6618] | 9.6
6 | TTTTGACATTAACTTAAAAAATAAATAATTATAAAA [XGTACX_negctrl_site552] | 9.11
7 | TATATATATATAAGTGCACACTGAACCAAGAAAATT [CACACA_site5637] | 9.89
8 | TATGTCTTGTTGTAAAATATTTATTAACAAATTGGC [CACACA_negctrl_site1452] | 9.34
9 | TTATAAAACACAAAATGTACAAAAAATTATAATTAA [XGTACX_site6859] | 9.71
10 | TTAAAGAATATTTTCACACATAAAAATTTTAATTTA [CACACA_site4290] | 9.32
11 | AATATTATTATCTTACCACACACAATCTACGAAAAG [CACACA_site8006] | 10.3
12 | CACATAAAATAAGGTGCATGCAAACGAGAAAATAAA [TGCATGCA_site75] | 10.1
13 | AAAAAAAATATATTACAAAACTTAGGATCCTAATAT [CACACA_negctrl_site470] | 9.62
14 | AATAAATATATTAAAAGTACACAAATATTATTTAAT [XGTACX_site2482] | 9.71
15 | AAGATTAAACATTGCACACAAAAACATATTTTCTAT [CACACA_site530] | 9.87
16 | ATATATATATAATAATGTACTTATAATAGATGTGTA [XGTACX_site4677] | 9.72
17 | ATATTTTATATAATAGTGCAAATAATATTAAATAAT | 9.6
18 | ATTATAATATTTAATTGTACTTGTATTTATTCCAAA [XGTACX_site6417] | 9.6
19 | TAATAAAAAGTTGAGGTGCATATAGAGTTCTTCTTT [GTGCAC_site9508] | 9.65
20 | TGCCCTTTGGTTATAACACACATGCACCCGTAAATA [CACACA_site3842] | 9.75
21 | CAAAGGAAACCTATCTGTACACATATTGGGGGAAAA [XGTACX_site3502] | 9.55
22 | AGAAGATTAAACATTGCACACAAAAACATATTTTCT [CACACA_site8072] | 9.8
23 | AATATATAAGCTGTTCTATTCAAGAATTATATCTTA [CACACA_negctrl_site270] | 9.46

Row | Sequence | gcPBM binding intensity (ln)
24 | CGTAAACGATATAAATGTACGAATATCTATATATTA [XGTACX_site8116] | 9.54
25 | TATATATTGCCCTTCACACACACACCGATATATATA [CACACA_site5390] | 10.3
26 | GAACGATATATTATATGTACATATATATATATATAT [XGTACX_site394] | 9.71
27 | TCGTTTCATAATATTGTGCACATATATATTTACAAT | 9.85
28 | TATTTCATCTTTTAAGAAGGTACCCATATGTCATAT [GTGCAC_negctrl_site403] | 9.57
29 | ATATATATATATATTTGTACTTACATTTTTATTTAT [XGTACX_site4551] | 9.82
30 | AAAAATATAACCGTTACACACAAAATAATATGAGAA [CACACA_site3773] | 9.93
31 | ATAATAAGGTTAAGCACACATATTACATATATAACT [CACACA_site3356] | 10
32 | AATAGGATATGGTACATTTTTTGTATACTTTTTGTT [CACACA_negctrl_site1804] | 9.76
33 | AAACAAGTAATTGTTATTATTATTATATTATTATTA [CACACA_negctrl_site402] | 9.47
34 | ATAAATTCTATGTATACACACATATATAATATATAT [CACACA_site2689] | 9.99
35 | GTTATTAAATAATTCACACACATATATATATATATA [CACACA_site2260] | 9.93
36 | TATGGAACACACCTTAATATGTGATAAAATATGATA [GTGCAC_negctrl_site718] | 9.71
37 | TATTCCTATATACAGCGTACAAAAAATAATATGTAT [XGTACX_site8112] | 9.64
38 | CGCAACGTGAAAATACGTACACATACATTTTTATAT [XGTACX_site330] | 9.65
39 | AAATATTATGTACGCACACACATTTTTGATATATAA [CACACA_site7755] | 10.1
40 | TAATCGTTTTATAAATGTACAAAATTGTTATGTTAT [XGTACX_site5147] | 9.57
41 | GGGGGAAGGTTGAAGGTGCTTGATGGAGAAAAATAT | 9.77
42 | TTAATACATACATTCACACACACTAAATGTATATTT [CACACA_site4105] | 10.1
43 | AAAATAGAGTTGAATGCACACATACAAATTTTTAGG [CACACA_site9188] | 10.1
44 | ATAAATAATTTATTCACACATACAAAAGTTTACAAA [CACACA_site5666] | 9.63
45 | TTATTAAATTCTTTATTTAGCATATACAATAAAAGA [CACACA_negctrl_site1420] | 9.05
46 | TTTTTTTTTTTTGAAGTGCATGTTACGATGAACAAA [GTGCAC_site9451] | 9.16

Row | Sequence | gcPBM binding intensity (ln)
47 | CTAAAAAGAGAAGTGTGTCCTCAAATTAATATAATT [XGTACX_site1057] | 9.63
48 | TCTTATATAACGAAAGTAAAATAATATGCTAAGCAT [CACACA_negctrl_site668] | 9.38
49 | AATGAATATTAAAGGAGTACACATAATAAGTAAGAA [XGTACX_site7354] | 10
50 | TATATAAAAATATACACACACAAATGTATTTATATA [CACACA_site4284] | 9.93
51 | GAAAAAAAAAAAAATACACACAAATTGGTATAGAAT [CACACA_site380] | 10.2
52 | GATTATTTCTAAAAAGTGCATATTTAAAAATCTCCT | 9.26
53 | ATTGTTTTGTAATATGAAAAAATTGTGTAATGTGTC [CACACA_negctrl_site1510] | 9.66
54 | TATTATATTATACATACACACCCATATAATATGTTT [CACACA_site8191] | 9.83
55 | AAATTCGTAATAATGTGTACATAACTATACATAATT [XGTACX_site1717] | 9.78
56 | AAAAAATAGAATATGGGTACTAAAAAGATACAAACA [XGTACX_site4464] | 9.8
57 | ATTTATATGAAAATATGTACTTATATAAATTTATTT [XGTACX_site53] | 9.64
58 | TTTATTTTTAACAGTGCACACATAACTTAATTATAT [CACACA_site8681] | 9.8
59 | TATACAGATGGACACACACACATAAATAAATATATA [CACACA_site4863] | 10.4
60 | TACTATAACCCACATACACACAAAAAAAAAAAAAAA [CACACA_site4454] | 10.2
61 | TGGTTTATTTATTAAGTGCATAAATGCAATATATAT | 9.54
62 | TATTATATATTTAATAGTACATATAAAATAATAAGG [XGTACX_site4823] | 9.58
63 | TTTATGTAATATACATGTACAGAATATAAAATATAT [XGTACX_site6906] | 9.7
64 | AAAAAATATAGATGCACACACAAAAAAACAAATTAA [CACACA_site6718] | 10.5
65 | TTAACTTCTTTAAAATGTACATATATTAAATAATAA [XGTACX_site3391] | 9.28
66 | TATTCTTACATCACCTCACACATTTAATATTCCTTA [CACACA_site4693] | 9.78
67 | GTATTATTATTTTATGCATGTACATTGAATTATATT [TGCATGCA_site34] | 9.86
68 | AGATTTTGAAATTATAAAAAAATTTCACTTCATTTA [CACACA_negctrl_site888] | 9.29
69 | ATATATATATATCAGAGTACATTCTTTAAAATATAT [XGTACX_site5915] | 9.56

Row | Sequence | gcPBM binding intensity (ln)
70 | TATAAATATGTATATGCATGTGGAATATATAATTAA [TGCATGCA_site226] | 9.69
71 | AAATAAAACAGACACACACACACATACACAAAAAAA [CACACA_site7753] | 10.9
72 | ATATGAGTATAAAAATGTACGGAGCAACTAAATATA [XGTACX_site620] | 9.8
73 | ATTACAACCACATTGACATGCAAATGTAGAGGGGGA [TGCATGCA_site694] | 9.8
74 | TGTCACCTATTTTTTTGTACGTATGTCCATTTTTTT [XGTACX_site4368] | 10.2
75 | AAAAAAAAAGAGGCGTGTACATATATAATTTAAATT [XGTACX_site6827] | 9.8
76 | TTATTAAAGTATAACTGTACATGCGAGTAAAAGAAT [XGTACX_site7388] | 9.95
77 | TGTTCTAATATTTGTTGTACATTTACATTTCTCTCT [XGTACX_site2585] | 9.81
78 | ATAATAGAAACAAACAGTACACATACCTAAAAGGAA [XGTACX_site8647] | 9.84
79 | TATTTTATTTCAAATCTTAATAATTGTAATTCTTCA [XGTACX_negctrl_site442] | 9.45
80 | TTTTAATTAGAAATCATACACACATATATATATATA [CACACA_site174] | 9.7
81 | ATTTTTAAAATAAATACATGCATATATTTATATGTT [TGCATGCA_site394] | 9.57
82 | TGTGTAATACATAATACACACATGTATATGTCGCAT [CACACA_site4757] | 9.86
83 | ATTTACATAAACGTCTGTACTAATATACAATTTTCT [XGTACX_site1700] | 9.75
84 | CATAAAATTGTATTTTGTACACATTTTGTATACATT [XGTACX_site5705] | 9.77
85 | TATATATAGAAACACACACACATATATATATATATT [CACACA_site4115] | 10.5
86 | TTTCAAAGGAAATGGTGTACACAATTTTTCCTTTTT [XGTACX_site2340] | 9.47
87 | TTTTATTATTCTTCTCTCTTATATATATATATATAT [CACACA_negctrl_site646] | 9.98
88 | ATAACATAGGCAATCACACATATCATTAAGGTGTCA [CACACA_site5233] | 9.77
89 | TACTTTTATATGAATACACACAGGAATATATATATG [CACACA_site3568] | 9.71
